# Results as given in ChEMBL document CHEMBL1157539, “Thousands of chemical starting points for antimalarial lead identification” (Nature, 2010).
# Whole data set: some 13,000 compounds, median “IFI” near 4, cut for the highest 2% near 17. The list shows a part of the results.
# Experiment: GSK_TCMDC: Inhibition Frequency Index (IFI). The number of non-kinase HTS assays where a compound showed > 50 % inhibition, expressed as a percentage of the number of such assays in which the compound was tested (-0 is zero)
# Format: functional
row,Structure (SMILES),IFI [%]
1,Cc1cccc(NC(=O)N(Cc2cc3cc(C)cc(C)c3[nH]c2=O)C2CC2)c1,0.71
2,CCOC(=O)NOC(C(=O)O)c1ccccc1 (stereo not given),0
3,CN1CCN(C(=O)CN2CCC3(CCC2=O)NC(=O)c2ccccc2O3)CC1 (stereo not given),0
4,CCC1CN2CCc3c([nH]c4ccccc34)C2CC1CC1=NCCc2c1[nH]c1ccccc21 (stereo not given),5.15
5,O=C(/C=C/c1ccc(F)cc1)NC1CCC(CCN2CCc3ccc(-n4cccn4)cc3CC2)CC1 (stereo not given),2.96
6,COc1cccc2cc(C(=O)N[C@@H](CC(C)C)C(=O)N[C@H](C=NN3CCCC3=O)Cc3ccccc3)oc12,1.82
7,COc1ccc(CCn2c(C3CCCCC3)nc3oc4ccccc4c(=O)c3c2=O)cc1,10.3
8,[O-][S+]1c2ccccc2Sc2ccccc21,1.48
9,Cc1ccc(OC2CCN(c3ccc(C(=O)NC4CC4)cn3)CC2)cc1,3.92
10,c1cncc(Oc2ccc(Nc3ccnc4cc(-c5cccc(CNCCN6CCOCC6)c5)ccc34)cc2)c1,8.89
11,O=C(Nc1ccc(I)cc1)Nc1ccc(Cn2ncc(N3CCCNCC3)c(Cl)c2=O)cc1,7.35
12,N#Cc1ccc2c(c1)CCN(CCC1CCC(NC(=O)Nc3ccncc3)CC1)C2 (stereo not given),1.4
13,CN1CCN(CCCN(Cc2cccc(-c3cccc(CNCCc4ccccc4)c3)c2)C(=O)Nc2ccccc2)CC1,8.7
14,Cc1cccc2nc(-c3ccc(-c4ccc(CN5CCN(c6ccncc6)CC5)cc4)s3)[nH]c12,11.3
15,CN1CCN(c2ccc(-c3cccc(NC(=O)c4ccc5ccccc5c4)c3)nn2)CC1,14.1
16,CCOc1cc(C(=O)Nc2cccnc2)cc(Br)c1OCCC(C)C,3.17
17,COc1ccc(-c2cccc(NC(=O)c3ccc(Cl)cc3)c2)cc1CNC(C)C,3.88
18,FC(F)(F)c1ccc2[nH]c(-c3ccc(-c4ccc(CN5CCN(c6ccncc6)CC5)cc4)s3)nc2c1,11.5
19,COC(=O)c1sc2ccccc2c1NC(=O)c1ccc(C)c(C)c1,1.4
20,Cc1cccc2nc(-c3cccc(-c4ccc(CNCc5ccc(S(C)(=O)=O)cc5)cc4)c3)[nH]c12,3.88
21,O=C(NCc1ccccc1)Nc1ccc(-c2cccc(-c3nc4cc(C(F)(F)F)ccc4[nH]3)c2)cc1,6.93
22,CCN(CC)c1nc(-c2ccccc2)cc(-c2ccccc2)c1C#N,3.01
23,COc1ccc(CNC2CCN(C)CC2)cc1-c1ccc(S(=O)(=O)NCCc2ccccn2)c(F)c1,1.89
24,COc1ccc(CNC(=O)Nc2cc3cc(-c4ccc(CN(C)C)cc4)ccc3n3c(C)nnc23)cc1,11.4
25,Cc1cccc2nc(-c3cccc(-c4ccc(CNCCCN5CCCC5=O)cc4)c3)[nH]c12,2.94
